Results: PubChem BioAssay AID1508642 (National Center for Advancing Translational Sciences (NCATS), 2021)
In all, about 43,000 compounds went through this assay and about 200 (0.47%) were called active. Inconclusive results (about 12%) are left out. Calls come from the whole dose curve; as a rule, active = well fitted cell-killing curve with a large enough effect; inconclusive = small, poorly fitted or top-dose-only effect, or effect the other way; inactive = flat fitted curve, though single readings scatter. This is one part of the list.

Assay: Cell viability qHTS assay in S16 Pmp22-F2sN cells; note: nearly all actives have a fitted effect of over 65% in size
Details: S16 Pmp22-F2sN Schwann cells viability, CellTiter-Glo, 24 h; series mostly up to 57.5 µM; activity change, negative = cytotoxicity: at the top concentration
Outline: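 Viability was measured by CellTiter-Glo luminescence (15 min, room temperature). This followed 24 h at 37 °C of compound exposure (23 nL pin transfer) in S16 Pmp22-F2sN Schwann cells, 500-1,000 per well.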
% is set by controls: 0 for no effect and ±100 for the full control effect.

Q: Which “activity change, negative = cytotoxicity” value does the source give for `CCCN(CCC)C(=O)CSc1nc2sc3c(c2c(=O)n1-c1ccccc1)CCN(C(C)=O)C3` here?
A: inactive: -27.4%

Q: With `O=C(NCCC1=CCCCC1)c1ccc2c(c1)ncn2-c1ccc(F)c(F)c1` as the compound, how does the “activity change, negative = cytotoxicity” value read?
A: inactive: -0.107%

Q: With `O=c1c2c(-c3ccc(Cl)cc3)ccnc2[nH]n1-c1ccccc1` as the compound, how does the “activity change, negative = cytotoxicity” value read?
A: inactive: 26.7%

Q: For `CCC(C(=O)Nc1cc(-c2nc3cccnc3s2)ccc1C)c1ccccc1` (configuration not stated), which “activity change, negative = cytotoxicity” value is on record?
A: inactive: 3.39%

Q: With `Cc1ccc(Cl)cc1NC(=O)Cn1c(=O)c2ccccc2n2nncc12` as the compound, how does the “activity change, negative = cytotoxicity” value read?
A: inactive: 8.74%

Q: For `CCOc1ccccc1C1CC(=O)Oc2c1c(=O)n(C)c1ccccc21` (configuration not stated), which “activity change, negative = cytotoxicity” value is on record?
A: inactive: -1.76%

Q: For `CCc1ccc(-n2nc3ccc(NC(=O)c4ccc(C#N)cc4F)cc3n2)cc1`, which “activity change, negative = cytotoxicity” value is on record?
A: inactive: 12.6%

Q: With `COc1cccc(CNC(=O)C2CCN(c3nnc(-n4c(C)ccc4C)s3)CC2)c1` as the compound, how does the “activity change, negative = cytotoxicity” value read?
A: inactive: -1.25%

Q: Which “activity change, negative = cytotoxicity” value does the source give for `Cc1cccc(-n2ncc3c(NC4CCCC4)ncnc32)c1` here?
A: inactive: 6.54%

Q: Which “activity change, negative = cytotoxicity” value does the source give for `CCC(CC)C(=O)Nc1cccc(-c2nc3ccccc3s2)c1` here?
A: inactive: -3.45%

Q: Which “activity change, negative = cytotoxicity” value does the source give for `CCOc1ccc(-c2nnc(SCC(=O)NCc3ccc(C)cc3)nc2-c2ccc(OCC)cc2)cc1` here?
A: inactive: 1.85%

Q: With `Fc1ccc(-c2cn3cc(Cc4ccc(Cl)cc4)sc3n2)cc1` as the compound, how does the “activity change, negative = cytotoxicity” value read?
A: inactive: 5.58%

Q: For `Cc1ccccc1CSc1nc2c(sc3ccccc32)c(=O)n1CCCOC(C)C`, which “activity change, negative = cytotoxicity” value is on record?
A: inactive: -24.5%

Q: With `COc1cc(OC)cc(N2CCN(S(=O)(=O)c3ccc(-n4cnnn4)cc3)CC2)c1` as the compound, how does the “activity change, negative = cytotoxicity” value read?
A: inactive: 1%

Q: Which “activity change, negative = cytotoxicity” value does the source give for `COc1ccc(-c2cn3nc(N4CCCC(C(=O)NCc5ccccc5Cl)C4)sc3n2)cc1` (configuration not stated) here?
A: inactive: -18.8%

Q: For `Cc1cccc(CNC(=O)CCn2ccc3cc(S(=O)(=O)N4CCCC4)ccc32)c1`, which “activity change, negative = cytotoxicity” value is on record?
A: inactive: -5.07%

Q: Which “activity change, negative = cytotoxicity” value does the source give for `COc1ccc(OC)c(CCNC(=O)c2cnn(-c3ccccc3)c2C2CCN(C(=O)OC(C)(C)C)CC2)c1` here?
A: inactive: -10.2%

Q: Which “activity change, negative = cytotoxicity” value does the source give for `Cc1ccc(-n2nnnc2CNC(=O)C(C)C)cc1C` here?
A: inactive: 6.08%

Q: With `CCSc1nnc2c(n1)OC(CC)N(C(C)=O)c1ccccc1-2` (configuration not stated) as the compound, how does the “activity change, negative = cytotoxicity” value read?
A: inactive: -1.84%

Q: For `Cc1nn(C)c2c1c(-c1ccccc1)cc(=O)n2C(C)C(=O)NCc1ccc(F)cc1` (configuration not stated), which “activity change, negative = cytotoxicity” value is on record?
A: inactive: 6.37%

Q: With `CCN1CCN(C(c2cccc(F)c2)c2c(O)cc(C)n(Cc3ccco3)c2=O)CC1` (configuration not stated) as the compound, how does the “activity change, negative = cytotoxicity” value read?
A: inactive: 0.873%

Q: For `CCCn1ccc2c(OCC(=O)NCc3ccccc3Cl)cccc2c1=O`, which “activity change, negative = cytotoxicity” value is on record?
A: inactive: -14.7%

Q: Which “activity change, negative = cytotoxicity” value does the source give for `O=C(CSc1nccn1Cc1ccccc1)NCc1ccccc1Cl` here?
A: inactive: 17.8%

Q: Which “activity change, negative = cytotoxicity” value does the source give for `CCc1ccccc1NC(=O)NCc1ccc2c(c1)CCN2C(=O)c1ccccc1` here?
A: inactive: -15.1%

Q: For `O=C(Nc1ccccc1C(=O)OCc1cc(=O)n2c3c(sc2n1)CCCC3)c1cccc(Cl)c1`, which “activity change, negative = cytotoxicity” value is on record?
A: inactive: 15.7%

Q: For `CC(C)Cn1cc(NC(=O)N2CCN(c3ccccc3F)CC2)c2ccccc2c1=O`, which “activity change, negative = cytotoxicity” value is on record?
A: inactive: 7.71%

Q: Which “activity change, negative = cytotoxicity” value does the source give for `Cc1cc(C)nc(NS(=O)(=O)c2ccc(NC(=O)COc3ccc(C(C)(C)C)cc3)cc2)n1` here?
A: inactive: -1.5%

Q: With `CCCn1c2ccccc2c2cnn(CC(=O)NCCc3ccccc3)c(=O)c21` as the compound, how does the “activity change, negative = cytotoxicity” value read?
A: inactive: -2.6%

Q: For `COC(=O)c1ccc(Cn2c(=O)cc(C(F)(F)F)c3c(C)nn(C)c32)cc1`, which “activity change, negative = cytotoxicity” value is on record?
A: inactive: -0.217%

Q: Which “activity change, negative = cytotoxicity” value does the source give for `Cc1cccc(-c2nc(Cn3c(=O)cc(-c4ccccc4)c4c(C)nn(C)c43)c(C)o2)c1` here?
A: inactive: -2.21%

Q: Which “activity change, negative = cytotoxicity” value does the source give for `Cc1ccccc1Cn1c(=O)n(CCc2ccccc2)c(=O)c2ccccc21` here?
A: inactive: 27%

Q: With `CCOc1ccc(S(=O)(=O)N(CC(=O)NCCSc2ccccc2)c2ccccc2)cc1` as the compound, how does the “activity change, negative = cytotoxicity” value read?
A: inactive: 12.2%

Q: For `CCN(c1ccc(OC)cc1)S(=O)(=O)c1ccc2[nH]c(=O)ccc2c1`, which “activity change, negative = cytotoxicity” value is on record?
A: inactive: -3.95%

Q: For `O=C(Cn1c2ncccc2c(=O)n1-c1ccccc1)Nc1ccc(F)c(F)c1`, which “activity change, negative = cytotoxicity” value is on record?
A: inactive: 2.83%

Q: For `O=C(NCc1ccc(Cl)cc1)C1CCCN(c2nc3ccccc3n3cccc23)C1` (configuration not stated), which “activity change, negative = cytotoxicity” value is on record?
A: inactive: -6%

Q: Which “activity change, negative = cytotoxicity” value does the source give for `Cc1ccc(C)c(N2CCN(Cc3csc(C)c3C)CC2)c1` here?
A: inactive: 7.88%

Q: Which “activity change, negative = cytotoxicity” value does the source give for `COc1ccccc1-c1cc(C(=O)N2CCCCC2C)no1` (configuration not stated) here?
A: inactive: -7.64%

Q: Which “activity change, negative = cytotoxicity” value does the source give for `CCCCC(=O)Nc1ccc2nc(SCC(=O)N3CCCC3)sc2c1` here?
A: inactive: 28.4%

Q: For `Nc1c(-c2nc(-c3cccs3)no2)nnn1-c1cccc(Cl)c1`, which “activity change, negative = cytotoxicity” value is on record?
A: inactive: 8.11%

Q: For `COc1ccc(CNC(=O)c2nn(-c3ccccc3C)nc2CO)cc1`, which “activity change, negative = cytotoxicity” value is on record?
A: inactive: -7.32%

Q: Which “activity change, negative = cytotoxicity” value does the source give for `COc1ccc(OC)c(C(C)NC(=O)Cn2c(=O)cc(C)c3c(C)nn(-c4ccc(C)cc4)c32)c1` (configuration not stated) here?
A: inactive: 9.92%

Q: For `COc1cccc(CNC(=O)C(NS(=O)(=O)c2ccc3c(c2)CCN3C(C)=O)C(C)C)c1` (configuration not stated), which “activity change, negative = cytotoxicity” value is on record?
A: inactive: 2.38%

Q: For `CCc1ccc(Nc2ncnc3c2cnn3-c2cc(Cl)ccc2C)cc1`, which “activity change, negative = cytotoxicity” value is on record?
A: inactive: -26.3%

Q: Which “activity change, negative = cytotoxicity” value does the source give for `CCOC(=O)N1CCC(NC(=O)c2ccc3c(c2)N(Cc2ccc(F)cc2)C(=O)c2ccccc2S3(=O)=O)CC1` here?
A: inactive: -13.9%

Q: For `Cc1ccc(CNC(=O)c2ccc3c(O)c(S(=O)(=O)c4ccccc4)c(=O)[nH]c3c2)cc1`, which “activity change, negative = cytotoxicity” value is on record?
A: inactive: 3.98%

Q: With `CCOc1ccccc1NC(=O)c1nnn(CC(=O)Nc2ccc(OC)c(OC)c2)c1N` as the compound, how does the “activity change, negative = cytotoxicity” value read?
A: inactive: -5.51%

Q: For `O=C(CSc1nc2ccccc2nc1Cc1ccc(Cl)cc1)NCCc1ccccc1`, which “activity change, negative = cytotoxicity” value is on record?
A: inactive: 7.71%

Q: For `CCOc1ccc(NC(=O)C(NS(=O)(=O)c2ccc3c(c2)CCN3C(C)=O)C(C)C)cc1` (configuration not stated), which “activity change, negative = cytotoxicity” value is on record?
A: inactive: -10.1%

Q: Which “activity change, negative = cytotoxicity” value does the source give for `Cc1ccc(N(Cc2cccs2)C(=O)c2ccc(Br)o2)cc1` here?
A: inactive: -14.5%

Q: With `Cc1cc(=O)n2nc(N3CCC(C(=O)Nc4ccc(C)c(Cl)c4)CC3)sc2n1` as the compound, how does the “activity change, negative = cytotoxicity” value read?
A: inactive: 5.8%

Q: Which “activity change, negative = cytotoxicity” value does the source give for `COc1ccc(CNC(=O)Cc2c(C)c3c(cc(C)c4c(C)c(C)oc43)oc2=O)cc1` here?
A: inactive: 7.9%

Q: Which “activity change, negative = cytotoxicity” value does the source give for `CCSc1ncc(Cl)c(C(=O)Nc2nc3ccc(OC)cc3s2)n1` here?
A: inactive: 0.411%

Q: For `Cn1nc(C(=O)NCc2ccc(Cl)cc2)c2c1-c1ccccc1SC2`, which “activity change, negative = cytotoxicity” value is on record?
A: inactive: 13.3%

Q: With `COc1ccc(CNC(=O)CCS(=O)(=O)c2ccc3c(c2)oc(=O)n3C)cc1` as the compound, how does the “activity change, negative = cytotoxicity” value read?
A: inactive: 3.84%

Q: Which “activity change, negative = cytotoxicity” value does the source give for `CCOc1cc(C2c3c(-c4ccc(Br)cc4)n[nH]c3C(=O)N2c2ccc(Cl)cc2)ccc1O` (configuration not stated) here?
A: inactive: -19.5%

Q: Which “activity change, negative = cytotoxicity” value does the source give for `CCc1nonc1NC(=O)c1oc2ccccc2c1C` here?
A: inactive: -2.5%

Q: For `O=C(CN1C(=O)COc2ccc(S(=O)(=O)N3CCOCC3)cc21)N1CCN(c2ccccc2)CC1`, which “activity change, negative = cytotoxicity” value is on record?
A: inactive: 11.3%

Q: Which “activity change, negative = cytotoxicity” value does the source give for `COCCCNC(=O)c1ccc2c(=O)n(Cc3ccc(OC)cc3)c(=O)[nH]c2c1` here?
A: inactive: 0.957%

Q: Which “activity change, negative = cytotoxicity” value does the source give for `COc1ccc(CNC(=O)CN(c2cc(C)cc(C)c2)S(=O)(=O)c2c(C)[nH]c(=O)[nH]c2=O)cc1` here?
A: inactive: 8.17%

Q: With `O=C(COc1ccccc1)N(Cc1cccnc1)c1nc2ccc(F)cc2s1` as the compound, how does the “activity change, negative = cytotoxicity” value read?
A: inactive: -23.6%

Q: With `CCOc1cc(-c2nc(-c3ccc(Br)cc3)no2)cc(OCC)c1OCC` as the compound, how does the “activity change, negative = cytotoxicity” value read?
A: inactive: -4.91%

Q: For `COc1ccc(-c2cc(C(F)(F)F)n3nc(C(=O)NCC45CC6CC(CC(C6)C4)C5)cc3n2)cc1`, which “activity change, negative = cytotoxicity” value is on record?
A: inactive: 6.17%
